Sequences with one replicate were seen in a single cluster, so their values are uncertain.

These results are taken from the supplement of paper PMC10126150.
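Also: ATP exposure 15 min at 22 °C before imaging.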

For this data set, the system named is ATP. The data set is described as follows: switch fluorescence ratio, 500 uM ATP over buffer (Cy3 cluster intensity, sum of 5 cycles each) (fold (ratio)); higher = stronger signal-on switching upon ATP binding; sequences stand for … in TCGTCGGCAGCGTCAGATGTGTATAAGAGACAGTTTTTTTTTTTTTTTTTTTTTTTTT…TC. The conditions noted are these: aptamer strand: ATP DNA aptamer (quencher-CACCTGGGGGAGTATTGCGGAGGAAGG + anchor), 100 nM annealed; ATP concentration: 500 uM; one replicate. In short, it runs like this:
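Clusters with intensities outside 100-1000 RFU were excluded. The remaining Cy3-labelled switching-strand clusters on a modified Illumina MiSeq flow-cell had been annealed to 100 nM quencher-labelled ATP aptamer and imaged in selection buffer, then after 15 min with 500 uM ATP at 22 °C, for five cycles separated by NaOH stripping and re-annealing. The fluorescence ratio, averaged per switch-domain sequence, is each cluster's summed target-cycle Cy3 intensity over its summed buffer-cycle Cy3 intensity.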
As for TGCAAAAGTT, the switch fluorescence ratio is 0.999. Turning to AGGTATAAAA, the switch fluorescence ratio worked out at 1.01. In the case of CCGTCAACCG, the switch fluorescence ratio was determined as 1.17. Take CCATAGCCCT: the switch fluorescence ratio was found to be 1.33. The figure for GTGGAAGCAT is 1.01; for CCGTGCTACC it is 3.63. For TGGAGGCATG, the switch fluorescence ratio was 1.04. On to AAAGGTGGTG, for which the switch fluorescence ratio came out at 0.995. Under GTTGTAAAC stands 1.01; under TCGATAGAC, 1.11; under CTTGTTTCCT, 1.05.

Turning to TCGCGCCTCC, the switch fluorescence ratio came out at 2.37.

For the sequence TGGTCGCCTG, the switch fluorescence ratio was 0.978. Under CTTAGTGCGA stands 1.03; under GCTTATGATA, 1.03; under GGCGCAAGTC, 1.48. The figure for AGATTCATTA is 1.01; for GATAGCAAGG it is 1.13; for CGATTTGATT it is 1.01.

Turning to TAAACGGGTG, the switch fluorescence ratio is 1.07.

Turning to CGGATTCA, the switch fluorescence ratio was 1.06. As for TGGGGTGTGC, the switch fluorescence ratio was 0.951. ATGAGCTACT: the switch fluorescence ratio worked out at 1.06.

Consider ACAGCAAGGG, for which the switch fluorescence ratio was determined as 1.07. The figure for CACGGGATCA is 1.06; for AAACCAGCTA it is 0.977. With GCCTATTTG, the switch fluorescence ratio came to 1. The figure for TTTCCTGGT is 1; for GTTTCCAAA it is 1; for AGGACTGGAT it is 0.97. Consider TAATCGC, for which the switch fluorescence ratio was found to be 1.01. The figure for CGTCATCAGC is 1.08; for TCAAAGCACT it is 1.15.

As for TTATTTATCT, the switch fluorescence ratio was determined as 1.02. The figure for AATCGGTGGC is 0.969; for GAATTCAATG it is 1.02. Under TGGTACCTCT stands 0.953; under ACCGGACATT, 1.18; under TAACGTTTTA, 0.995. Under GGCGTATAAA stands 0.988; under CACGTTGTTC, 0.989. In the case of ATATTGACGT, the switch fluorescence ratio was determined as 1.04. Under CTAGGAAAA stands 0.983; under ATTTCTGGCG, 0.982.

In the case of GGTAAACCAG, the switch fluorescence ratio was determined as 0.993. Under GAGCAAGAAC stands 1.36. The figure for AAATCCGTT is 0.963; for CTGCGCATCA it is 1.57; for CCGATTGAGT it is 1.01. Under GAATTACAAG stands 0.989; under AGAGCGGTCC, 1. For GTAGGATATA, the switch fluorescence ratio amounted to 1.01. As to GAGCAGTTAG, the switch fluorescence ratio was 1.17. The figure for TAGTCATGAT is 1.04; for TTTGATTCAA it is 0.995; for GTAACCTGCG it is 1.24. Turning to GCAGTTCAAT, the switch fluorescence ratio stood at 1.04. Take AAGGTCAAC: the switch fluorescence ratio is 0.985.

For TAGAGACTTT, the switch fluorescence ratio was determined as 1.05. Consider CGTATTTCA, for which the switch fluorescence ratio was 1. Regarding TTGCTCAGAA, the switch fluorescence ratio worked out at 1.02.

Consider CGGGTGCTTC, for which the switch fluorescence ratio is 0.975. Under TCCAATCAAT stands 1.09.

Turning to CAGTGTGTAG, the switch fluorescence ratio is 1.03. Under TATTTAACGT stands 1.05. Under GCAGGACCGG stands 1.08; under TAACACTCAT, 1.
